# Test results from the supplement of paper PMC5499739.
# Over roughly 16,000 sequences, “Z-score” has its median near -0.37; the highest 2% begin near 3.2. The list shows a part of the results.
# System: RBM10 RRM1-ZnF (GST-tagged construct)
# Test: RNAcompete 7-mer binding Z-score; higher = stronger binding preference
# Outline: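 A one-sided Z-score for enrichment, taken across the probes containing each heptamer motif, was assigned to every such motif. The RNA came from a designed pool of 241 399 sequences up to 41 nt (1.5 nmol), bound by 20 pmol of GST-tagged RBM10 constructs in 1 ml Hepes pH 7.8 buffer with glutathione Sepharose beads for 30 min at 4°C. Four 2-min washes at 4°C preceded identification of bound RNA by microarray hybridisation.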
row,Sequence,RNAcompete 7-mer binding Z-score
1,CAAGAAC,-0.5
2,GUUAGCC,-0.415
3,AGUAUUU,-0.545
4,GGUGAUC,1.15
5,CCGGCAC,-0.409
6,GAUAAAU,-0.0707
7,GGUCCCA,-0.311
8,ACCAACC,-0.74
9,GUGGCGA,1.42
10,AAAAAGG,2
11,GAAAAUU,-0.0674
12,CGACCGG,0.267
13,UAAAUAC,-0.409
14,AGUGCAG,0.576
15,CCCUGCU,-0.74
16,GGUCAUG,0.92
17,GAGAACG,0.943
18,UUGUGCG,-0.155
19,CAGGUUG,2.04
20,UAUCAUU,-0.646
21,AUAGCGU,0.0268
22,CACAAAG,-0.34
23,ACCACCA,-0.503

row,Sequence,RNAcompete 7-mer binding Z-score
1,CAGGCCA,0.00404
2,AUAAAGG,1.64
3,AAAGCAC,-0.418
4,UUUGCCU,-0.821
5,GGGCUAG,1.74
6,GGAACCC,-0.0707
7,AAAGCUA,-0.103
8,CAAGGUG,1.76
9,GCAGCGC,-0.178
10,CGGAUGC,0.68
11,UCUAAAA,-0.591
12,AAGUUCU,-0.659
13,ACCAUUG,-0.662
14,UCCGCCU,-0.698
15,CAAGAUC,-0.6
16,ACCGUAA,-0.802
17,ACGCUAG,-0.402
18,GGAAUUU,0.407
19,GCUUCAG,-0.425
20,AACUCGU,-0.789
21,UUAUUCC,-0.876
22,CAUAUGG,0.296
23,GAAGUUA,0.309

row,Sequence,RNAcompete 7-mer binding Z-score
1,UCUCUCU,-0.733
2,AACCUCA,-0.659
3,CUCCGAC,-0.649
4,CUAGUAC,-0.578
5,UUGUAGA,-0.0447
6,GCACGUA,-0.0707
7,CUGCCUG,-0.659
8,GUUUCUC,-0.483
9,CUCUGAU,-0.805
10,UCGUGUG,-0.0577
11,GUUGGAU,1.67
12,GUUACUG,-0.152
13,GCCCAGC,-0.409
14,CGUAAUU,-0.509
15,AGACACU,-0.815
16,GGUAAGA,2.19
17,GUGGCAA,1.03
18,UCGUUGG,0.553
19,GGACCUG,-0.145
20,GAACCAA,-0.451
21,UACAUGC,-0.467
22,CCUCUAG,-0.694
23,CUAGAUU,-0.678

row,Sequence,RNAcompete 7-mer binding Z-score
1,GCAUGAG,0.612
2,CUGUAUG,-0.301
3,CCCACAG,-0.47
4,AUUUCCC,-0.925
5,GUCCCUA,-0.587
6,CUCCUCG,-0.568
7,GUCCUUU,-0.759
8,UAUAAUG,0.118
9,UAUAUGG,1.03
10,AGGGUUC,0.985
11,GCGUCGC,-0.113
12,AAAAUAA,-0.428
13,CCCUCAG,-0.568
14,UUAUGUU,-0.542
15,AGCGAGA,0.686
16,CGGGUAC,1.17
17,UGAGUGA,0.956
18,CACCACA,-0.496
19,CGGAAUC,0.0235
20,UCUAGGA,0.144
21,ACGUAAC,-0.454
22,UUGAAAA,-0.386
23,GCCGUGU,-0.383

row,Sequence,RNAcompete 7-mer binding Z-score
1,GACAAAA,-0.11
2,GUUACGU,-0.0837
3,UCUCUAU,-0.743
4,CCGCCAA,-0.604
5,ACGGCAA,0.192
6,UGUACAC,-0.24
7,UUACACG,-0.604
8,UUCCCCU,-0.558
9,AAUCUGA,-0.704
10,GGAGCAG,2.11
11,GGUGCUU,0.501
12,UUUAGCG,-0.467
13,GGCCAAA,-0.418
14,GCUGCAU,-0.201
15,CAGCUCU,-0.681
16,AUCAGUC,-0.454
17,UGACCGU,-0.568
18,UAUACUG,-0.513
19,GGCUCAG,0.261
20,AUGCGAC,-0.123
21,GCUUCGG,-0.168
22,CACAAUA,-0.714
23,GUCACUC,-0.519

row,Sequence,RNAcompete 7-mer binding Z-score
1,CAAGUAA,-0.275
2,ACUAUGU,-0.412
3,GGGCAGA,2.45
4,CACUUGC,-0.668
5,GGCACCA,-0.116
6,CGCUUCU,-0.902
7,GGAUGAG,3.4
8,UGUAGAC,0.0235
9,CAUUUAU,-0.808
10,GGCGCUA,0.192
11,UGCACAU,-0.431
12,ACGUAAA,-0.0934
13,AAGCGAU,0.309
14,GCAAAAC,-0.0902
15,GGAGAGA,1.46
16,CUCCCAC,-0.545
17,UUGAUGG,1.35
18,AUAGAGC,0.16
19,CAGUUCA,-0.607
20,GCGCAAA,-0.181
21,UCACCGU,-0.759
22,AGGGUGA,4.19
23,UAACGCC,-0.789

row,Sequence,RNAcompete 7-mer binding Z-score
1,UUUAGUC,-0.704
2,GUUCUCG,-0.678
3,CGACGCA,-0.36
4,UGUUCGA,-0.581
5,GAAUUCA,-0.415
6,UAGGGAC,1.79
7,AGCGCGC,-0.347
8,GGCUUGG,1.54
9,AGCGGGA,3.31
10,GUCAUGG,1.11
11,UAGGAAA,1.47
12,GUUAGCA,0.173
13,CCAACGA,-0.431
14,UGUAUGC,-0.158
15,UUUUGUA,-0.694
16,GGGGUUC,1.79
17,UCUUCAG,-0.675
18,GGGUAUU,2.23
19,UAACGAG,-0.00571
20,AGGGACC,0.54
21,CUGACGC,-0.652
22,UCUAAAG,-0.578
23,CCAUCGG,-0.578

row,Sequence,RNAcompete 7-mer binding Z-score
1,GCUAGGG,2.5
2,UUGAGGC,0.115
3,GAUAUUC,-0.503
4,UUGCGCC,-0.509
5,CCAGCUG,-0.422
6,CCCGCAA,-0.685
7,AACGUUA,-0.347
8,GCCCCGC,-0.158
9,UUCAGGC,-0.431
10,UCGUCAA,-0.594
11,ACGAGGA,1.33
12,CCUAUCU,-0.873
13,CCCGGAU,-0.399
14,CUUCUGG,-0.717
15,UCAUAAG,-0.672
16,ACGACAG,0.186
17,GGCCCAA,-0.379
18,GCCGGUC,-0.425
19,CUAGUUC,-0.876
20,CGAUCAG,-0.0739
21,UUCCAGG,-0.194
22,UGAAUGU,0.134
23,GUGAUCA,0.215
